Laboratory results from a compilation of properties of binary mixtures (doi:10.1016/j.molliq.2021.117187).
The densities may have been worked out from excess volumes.

Test: xn = mol fraction of the nth substance listed
Conditions: 100 kPa

CCCC[n+]1ccn(C)c1.F[B-](F)(F)F + CCOC(C)=O
mass density [kg/m3]
Conditions	x1 = 0.1014	x1 = 0.2013	x1 = 0.3012	x1 = 0.3885	x1 = 0.4936	x1 = 0.5911	x1 = 0.6978	x1 = 0.7997	x1 = 0.8998
298.15 K	951.5	999.6	1041.3	1072.7	–	1130.2	1153.2	–	1186.2
303.15 K	945.8	–	1036.4	1068	1100.5	1126	1149.2	1167.7	1182.7
308.15 K	940.3	989.4	1031.6	1063.4	1096.1	–	–	1164.1	1179.3
313.15 K	934.9	–	1026.8	1058.7	1091.7	1117.6	1141.6	1160.6	1175.9
318.15 K	929.4	979.4	1022	1054.1	1087.3	–	1137.8	1157.1	1172.6
323.15 K	923.9	974.3	1017.1	1049.4	1082.9	1109.4	1134	1153.7	1169.3
